Measurements taken from PubChem BioAssay AID463173 (ICCB-Longwood Screening Facility, Harvard Medical School, 2010).
About 1,700 (3.3%) of roughly 52,000 compounds were called active. No stated cut-off is given here; in the data, active means survival mostly below about 52% (no sharp cut-off); inactive means mostly above about 56%. This is one part of the list.

What follows are molecules tested on Wild type (assay: growth inhibition of S. aureus wild type versus tarO mutant, primary screen, teichoic acid synthesis inhibitors, RN4220, OD600 (AID 463173)). Conditions: S. aureus RN4220 wild type/DeltatarO growth, OD600, 18 h, stronger effect = lower value, screened at 18.75 µg/mL (by protocol).

Compound | survival
COc1cc(OC)c(NC(=O)C2CCN(S(=O)(=O)c3ccc4c(c3)oc(=O)n4C)CC2)cc1Cl | inactive: 88%
COc1ccc2c(CNCCc3cccs3)c(C(=O)O)n(Cc3cccc(F)c3)c2c1 | inactive: 60%
COc1ccc(NCc2nnc(SCC(=O)c3ccc(C)cc3)o2)cc1 | inactive: 108%
Nc1c(C(=O)NCc2ccc(Cl)cc2)sc2nc(-c3ccc(F)cc3)ccc12 | inactive: 98%
CCc1ccc(Nc2sc(C(=O)c3ccc(F)cc3)c(N)c2S(=O)(=O)c2ccccc2)cc1 | inactive: 86%
Nc1nnc(SCC(=O)NC2CCCCC2)s1 | inactive: 86%
COc1ccc(OC)c(NC(=O)CCNS(=O)(=O)c2ccc3c(c2)oc(=O)n3C)c1 | inactive: 86%
COCCn1c(N)cc(=O)[nH]c1=S | inactive: 107%
COc1cc(NC(=O)C2Cc3ccccc3N2C(=O)c2ccccc2)cc(OC)c1 (stereo not given) | inactive: 74%
Cc1cccc(C(=O)NNc2ncnc3c2cnn3-c2ccc(C)c(Cl)c2)c1 | inactive: 65%
Cc1ccc(-c2nc(CS(=O)CC(=O)NCCc3ccc(Cl)cc3)c(C)o2)cc1 (stereo not given) | inactive: 75%
CC(CNC(=O)CCCn1c(=O)c2cccn2c2ccc(F)cc21)c1ccccc1 (stereo not given) | inactive: 38%
CCOc1ccc(-n2nc(CO)c(C(=O)NCC(C)O)n2)cc1 (stereo not given) | inactive: 81%
COc1ccc(OCCn2nnc3sc4c(c3c2=O)CCCC4)cc1 | inactive: 81%
COC(=O)c1cc2sccc2n1CC(=O)Nc1cc(Cl)ccc1OC | inactive: 93%
CCOc1ccc(NCc2n[nH]c(=S)n2-c2ccc(C)cc2)cc1 | inactive: 122%
COc1ccc(N2CCN(c3ncnc4c3nnn4C)CC2)cc1 | active: -2%
CCC(=O)N1c2ccccc2CC1C(=O)N1CCN(c2ccccc2F)CC1 (stereo not given) | inactive: 69%
Cc1ccc(NC(=O)Cn2c(=O)n(CCCCC(=O)NCc3ccc4c(c3)OCO4)c(=O)c3ccccc32)cc1 | inactive: 98%
CCOC(=O)C1CCN(c2ncnc3c2c(-c2ccccc2)cn3-c2ccc(Cl)cc2)CC1 | inactive: 68%
CCOC(=O)c1c(C)[nH]c(C)c1S(=O)(=O)NCC(=O)NCc1ccccc1C | inactive: 134%
CCOc1ccccc1CNS(=O)(=O)c1cc(-c2onc(C)c2C)ccc1OC | inactive: 55%
N#Cc1c(C(F)(F)F)cc(-c2cccs2)nc1SCc1ccccc1F | inactive: 51%

Compound | survival
CCOc1ccccc1Oc1nc(C)nc2c1oc1ccccc12 | inactive: 130%
Clc1ccccc1CSc1nc(NCCc2ccccc2)c2ccccc2n1 | inactive: 53%
Cc1nnnn1CCC(=O)NC(C)c1ccccc1 (stereo not given) | inactive: 120%
CCOc1ccccc1Nc1sc(C(=O)c2ccc(Cl)cc2)c(N)c1S(=O)(=O)c1ccccc1 | inactive: 19%
O=C(CSc1ncc2c(n1)-c1ccccc1N(Cc1ccc(Cl)cc1)S2(=O)=O)c1ccccc1 | inactive: 148%
CCOc1ccc(NC(=O)CCc2nnc3n(C)c(=O)c4sccc4n23)cc1 | inactive: 166%
CCN(Cc1ccccc1)C(=O)Cn1ncc2c(=O)oc3ccc(C)cc3c21 | inactive: 100%
Cc1cccc(N2CCN(C(=O)c3ccc4c(c3)N(Cc3cccc(Cl)c3)C(=O)c3ccccc3S4(=O)=O)CC2)c1C | inactive: 124%
CCC(C(=O)NC1CCCCC1)n1c(SCc2cccc(F)c2)nc2ccncc21 (stereo not given) | inactive: 124%
CC1(C)CC(CC#N)(Cc2ccccc2)CCO1 (stereo not given) | inactive: 122%
COc1ccccc1NC(=O)Cn1ccn(-c2cc(C)cc(C)c2)c(=O)c1=O | inactive: 85%
Cc1ccc(S(=O)(=O)C(CNS(=O)(=O)c2ccc(F)c(C(F)(F)F)c2)c2ccco2)cc1 (stereo not given) | inactive: 81%
CCOc1ccc(CNCc2c(C(=O)O)n(Cc3ccccc3C)c3cc(OC)ccc23)cc1OC | inactive: 114%
O=C(NCc1ccc2c(c1)OCO2)C1CCN(c2ncccn2)CC1 | inactive: 103%
CC(CNC(=O)C1CCN(C(=O)c2cc3sccc3n2C)CC1)c1ccccc1 (stereo not given) | inactive: 82%
Cc1ccc(Cl)cc1Nc1nn2c(=O)c3ccc(C(=O)NC(C)c4ccccc4)cc3nc2s1 (stereo not given) | inactive: 119%
COc1ccccc1CNC(=O)CCc1c(C)nn(-c2ccc(N3CCCCC3)nn2)c1C | inactive: 97%
Cn1nc(C(=O)NCc2ccccc2)c2c1-c1ccccc1S(=O)(=O)C2 | inactive: 85%
Cc1ccc(Cl)cc1N1CCN(C(=O)CCS(=O)(=O)c2ccc3c(c2)oc(=O)n3C)CC1 | inactive: 73%
CCOc1ccc(-n2c(=O)c3c(C)c(C(=O)N(C)C)sc3n(Cc3cc(C)ccc3C)c2=O)cc1 | active: -3%
Cc1ccc(S(=O)(=O)C(CNC(=O)C(=O)NCc2ccc(Cl)cc2)c2ccco2)cc1 (stereo not given) | inactive: 120%
COC(=O)/C(C#N)=C\c1c[nH]c2ccccc12 | inactive: 130%
CCOc1ccccc1CNC(=O)c1oc2ccc3c(c2c1C)C(=O)CC(C)(C)O3 | inactive: 39%

Compound | survival
O=c1c2sc3ccccc3c2n(Cc2ccc(F)cc2Cl)c(=O)n1Cc1ccccc1 | inactive: 66%
CCCC(OC(=O)CN1C(=O)COc2ccccc21)C(=O)NC1CCCC1 (stereo not given) | inactive: 102%
CN(C(=O)CSc1nc2ccccc2n1Cc1ccccc1C#N)c1ccccc1 | inactive: 64%
CCOc1ccc(-c2nc3cc(NC(=O)COc4cccc(C)c4)ccc3o2)cc1 | inactive: 128%
CCn1cc(S(=O)(=O)c2ccc(Cl)cc2)c(=O)c2cc(F)c(N3CCOCC3)cc21 | inactive: 75%
CCN(CC)S(=O)(=O)c1ccc(N2CCCCS2(=O)=O)cc1 | inactive: 71%
Cc1ccc(Nc2nc(C(=O)N3CCC(C(=O)NCCN4CCOCC4)CC3)cs2)cc1 | inactive: 103%
Cc1ccc2onc(CNC(=O)N3CCN(c4cccc(C(F)(F)F)c4)CC3)c2c1 | inactive: 96%
Cc1ccc(CNC(=O)CN2C(=O)CCc3cc(S(=O)(=O)N4CCCCC4)ccc32)cc1 | inactive: 91%
COC(=O)c1ccc2nc(C)cc(Nc3cccc(Cl)c3C)c2c1 | inactive: 123%
COCC(=O)Nc1c(C(=O)Nc2ccc(C)cc2)oc2ccccc12 | inactive: 86%
Cc1ccc(NC(c2nnc(-c3ccccc3)o2)c2ccccc2F)c(Cl)c1 (stereo not given) | inactive: 91%
Cc1ccc2oc(-c3ccc(C)c(NC(=O)c4ccc(-c5ccccc5[N+](=O)[O-])o4)c3)nc2c1 | inactive: 71%
Cc1nc2ccccc2c(=O)n1CC(C)C | inactive: 106%
CCOc1ccc(S(=O)(=O)N(CC(=O)Nc2ccc3c(c2)OCO3)c2ccc(C)cc2)cc1 | inactive: 61%
COc1cc(CN(C(=O)c2ccc(Cl)cc2)C2CCS(=O)(=O)C2)cc(OC)c1OC (stereo not given) | inactive: 96%
Cc1ccc(CCNC(=O)CCn2nc(-c3ccc(C)cc3)ccc2=O)cc1 | inactive: 128%
COC(=O)c1ccc2c(=O)n(CCCCCC(=O)N3CCN(c4ccc(Cl)cc4)CC3)c(=O)[nH]c2c1 | inactive: 136%
COc1cccc(C(=O)n2nc(-c3cccnc3)nc2NCc2ccc(F)cc2)c1 | inactive: 75%
CCN(CC)CCSc1nnc2c3cc(F)ccc3n(CC)c2n1 | inactive: 144%
CCCSc1nnc2c(n1)OC(c1cccs1)Nc1ccc(Br)cc1-2 (stereo not given) | inactive: 57%
COC(=O)c1ccc(NC(=O)CN(Cc2ccccc2)S(=O)(=O)c2ccc(Cl)cc2)cc1 | inactive: 56%
COc1ccccc1CNC(=O)Cn1c(=O)nc(-c2ccccc2)c2ccccc21 | inactive: 67%

Compound | survival
O=C(NCCc1ccccc1)c1ccc(CS(=O)(=O)c2ccc(Cl)cc2)o1 | inactive: 78%
Oc1c(C(c2ccccc2F)N2CCCC2)sc2nc(-c3ccco3)nn12 (stereo not given) | inactive: 88%
Cc1c(Cl)cccc1NC(=O)Nc1ccc2snnc2c1 | active: 24%
CCn1nc(C)c(NC(=O)CCSc2nc(-c3ccco3)cc(C(F)(F)F)n2)c1C | inactive: 105%
CCc1ccc(N(CC)C(=O)Cn2cnc3sc(C)c(S(=O)(=O)N4CCN(c5ncccn5)CC4)c3c2=O)cc1 | inactive: 83%
CCCOc1ccccc1C1C(C(=O)Nc2ccccc2)=C(C)Nc2nnnn21 (stereo not given) | inactive: 134%
CCCC1=Nc2cc(C(=O)NCCOC)ccc2Sc2ccccc21 | inactive: 123%
CCC(=O)N1c2ccc(S(=O)(=O)CCC(=O)NCc3cccc(OC)c3)cc2CC1C (stereo not given) | inactive: 82%
CC(=O)Nc1ccc(NC(=O)c2cc(-c3ccc4c(c3)OCCO4)on2)cc1 | inactive: 109%
Cc1cccc(S(=O)(=O)c2cn(C)c3cc(N4CCC(C)CC4)c(F)cc3c2=O)c1 | inactive: 81%
Cc1[nH]c(=O)[nH]c(=O)c1CSCC(=O)O | inactive: 108%
COc1ccc(-c2noc(CSc3nnc(C)n3-c3ccc(C)c(C)c3)n2)c(OC)c1 | inactive: 81%
COc1ccc(-c2nc(SCC(=O)NCCc3ccccc3)n[nH]2)cc1 | inactive: 78%
O=C(NCc1ccccc1Cl)c1nnc(Cc2ccc(Cl)cc2)o1 | inactive: 85%
Cc1cccc(CSc2ccc(-c3cccs3)nn2)c1 | inactive: 76%
CN(C)c1ccc(-c2nc3ccccn3c2NC2CCCC2)cc1 | inactive: 105%
CCOc1ccc(NC(=O)C(C)n2c(=O)cc(C)c3c(C)nn(-c4ccccc4)c32)cc1 (stereo not given) | inactive: 68%
CCc1ccc(OCC(=O)Nc2ccc3c(c2)c2ccccc2n3CC)c(Br)c1 | active: -6%
N#C/C(=C\c1cc(Br)c(O)c(Br)c1)c1nc2ccccc2c(=O)[nH]1 | inactive: 94%
Cc1ccc2onc(CC(=O)N3CCN(c4ccccc4)CC3)c2c1 | inactive: 81%
CCc1ccc(NC(=O)CSc2ncc(S(=O)(=O)c3cc(C)ccc3C)c(=O)[nH]2)cc1 | inactive: 83%
